# This is one part of the list.
# How the values were obtained:
# Test in all cases: glycan array binding signal (z-score within array); higher = stronger binding
# Conditions in all cases: glycan notation: IUPAC condensed, linker removed
# [1] = biological target: Gal(b1-4)GlcNAc(b1-3)Gal(b1-3)GlcNAc
# Method in brief: (§1)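 Columns mapping to the same glycan were averaged after glycan names were converted to IUPAC-condensed notation. The data come from 3228 arrays in the Consortium for Functional Glycomics database, limited to those with an available protein sequence. Binding is reported as a within-array Z-score averaged across arrays of one protein sequence and across linkers.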
# [2] = biological target: Gal(b1-4)GlcNAc(b1-3)Gal(b1-4)Glc
# Method in brief: as §1
# [3] = biological target: Gal(b1-4)GlcNAc(b1-3)Gal(b1-4)GlcNAc
# Method in brief: as §1
# [4] = biological target: Gal(b1-4)GlcNAc(b1-3)Gal(b1-4)GlcNAc(b1-2)Man(a1-3)[Gal(b1-4)GlcNAc(b1-3)Gal(b1-4)GlcNAc(b1-2)Man(a1-6)]Man(b1-4)GlcNAc(b1-4)GlcNAc
# Method in brief: as §1
# [5] = biological target: Gal(b1-4)GlcNAc(b1-3)Gal(b1-4)GlcNAc(b1-2)Man(a1-3)[Gal(b1-4)GlcNAc(b1-3)Gal(b1-4)GlcNAc(b1-2)Man(a1-6)]Man(b1-4)GlcNAc(b1-4)[Fuc(a1-6)]GlcNAc
# Method in brief: as §1
# [6] = biological target: Gal(b1-4)GlcNAc(b1-3)Gal(b1-4)GlcNAc(b1-2)[Gal(b1-4)GlcNAc(b1-3)Gal(b1-4)GlcNAc(b1-6)]Man(a1-6)[Gal(b1-4)GlcNAc(b1-3)Gal(b1-4)GlcNAc(b1-2)Man(a1-3)]Man(b1-4)GlcNAc(b1-4)GlcNAc
# Method in brief: as §1
# [7] = biological target: Gal(b1-4)GlcNAc(b1-3)Gal(b1-4)GlcNAc(b1-2)[Gal(b1-4)GlcNAc(b1-3)Gal(b1-4)GlcNAc(b1-6)]Man(a1-6)[Gal(b1-4)GlcNAc(b1-3)Gal(b1-4)GlcNAc(b1-2)Man(a1-3)]Man(b1-4)GlcNAc(b1-4)[Fuc(a1-6)]GlcNAc
# Method in brief: as §1
# [8] = biological target: Gal(b1-4)GlcNAc(b1-3)Gal(b1-4)GlcNAc(b1-3)Gal(b1-4)GlcNAc
# Method in brief: as §1
# [9] = biological target: Gal(b1-4)GlcNAc(b1-3)Gal(b1-4)GlcNAc(b1-3)Gal(b1-4)GlcNAc(b1-2)Man(a1-3)[Gal(b1-4)GlcNAc(b1-3)Gal(b1-4)GlcNAc(b1-3)Gal(b1-4)GlcNAc(b1-2)Man(a1-6)]Man(b1-4)GlcNAc(b1-4)GlcNAc
# Method in brief: as §1
# [10] = biological target: Gal(b1-4)GlcNAc(b1-3)Gal(b1-4)GlcNAc(b1-3)Gal(b1-4)GlcNAc(b1-2)Man(a1-3)[Gal(b1-4)GlcNAc(b1-3)Gal(b1-4)GlcNAc(b1-3)Gal(b1-4)GlcNAc(b1-2)Man(a1-6)]Man(b1-4)GlcNAc(b1-4)[Fuc(a1-6)]GlcNAc
# Method in brief: as §1
# [11] = biological target: Gal(b1-4)GlcNAc(b1-3)Gal(b1-4)GlcNAc(b1-3)Gal(b1-4)GlcNAc(b1-2)[Gal(b1-4)GlcNAc(b1-3)Gal(b1-4)GlcNAc(b1-3)Gal(b1-4)GlcNAc(b1-6)]Man(a1-6)[Gal(b1-4)GlcNAc(b1-3)Gal(b1-4)GlcNAc(b1-3)Gal(b1-4)GlcNAc(b1-2)Man(a1-3)]Man(b1-4)GlcNAc(b1-4)[Fuc(a1-6)]GlcNAc
# Method in brief: as §1
# [12] = biological target: Gal(b1-4)GlcNAc(b1-3)Gal(b1-4)GlcNAc(b1-3)Gal(b1-4)GlcNAc(b1-3)Gal(b1-4)GlcNAc(b1-2)Man(a1-3)[Gal(b1-4)GlcNAc(b1-3)Gal(b1-4)GlcNAc(b1-3)Gal(b1-4)GlcNAc(b1-3)Gal(b1-4)GlcNAc(b1-2)Man(a1-6)]Man(b1-4)GlcNAc(b1-4)GlcNAc
# Method in brief: as §1
# [13] = biological target: Gal(b1-4)GlcNAc(b1-3)Gal(b1-4)GlcNAc(b1-3)Gal(b1-4)GlcNAc(b1-3)Gal(b1-4)GlcNAc(b1-2)Man(a1-3)[Gal(b1-4)GlcNAc(b1-3)Gal(b1-4)GlcNAc(b1-3)Gal(b1-4)GlcNAc(b1-3)Gal(b1-4)GlcNAc(b1-2)Man(a1-6)]Man(b1-4)GlcNAc(b1-4)[Fuc(a1-6)]GlcNAc
# Method in brief: as §1
# [14] = biological target: Gal(b1-4)GlcNAc(b1-3)Gal(b1-4)GlcNAc(b1-3)Gal(b1-4)GlcNAc(b1-3)Gal(b1-4)GlcNAc(b1-2)[Gal(b1-4)GlcNAc(b1-3)Gal(b1-4)GlcNAc(b1-3)Gal(b1-4)GlcNAc(b1-3)Gal(b1-4)GlcNAc(b1-6)]Man(a1-6)[Gal(b1-4)GlcNAc(b1-3)Gal(b1-4)GlcNAc(b1-3)Gal(b1-4)GlcNAc(b1-3)Gal(b1-4)GlcNAc(b1-2)Man(a1-3)]Man(b1-4)GlcNAc(b1-4)[Fuc(a1-6)]GlcNAc
# Method in brief: as §1
# [15] = biological target: Gal(b1-4)GlcNAc(b1-3)Gal(b1-4)GlcNAc(b1-3)Gal(b1-4)GlcNAc(b1-3)Gal(b1-4)GlcNAc(b1-3)Gal(b1-4)GlcNAc(b1-2)Man(a1-3)[Gal(b1-4)GlcNAc(b1-3)Gal(b1-4)GlcNAc(b1-3)Gal(b1-4)GlcNAc(b1-3)Gal(b1-4)GlcNAc(b1-3)Gal(b1-4)GlcNAc(b1-2)Man(a1-6)]Man(b1-4)GlcNAc(b1-4)GlcNAc
# Method in brief: as §1
# [16] = biological target: Gal(b1-4)GlcNAc(b1-3)Gal(b1-4)GlcNAc(b1-3)Gal(b1-4)GlcNAc(b1-3)Gal(b1-4)GlcNAc(b1-3)Gal(b1-4)GlcNAc(b1-2)Man(a1-3)[Gal(b1-4)GlcNAc(b1-3)Gal(b1-4)GlcNAc(b1-3)Gal(b1-4)GlcNAc(b1-3)Gal(b1-4)GlcNAc(b1-3)Gal(b1-4)GlcNAc(b1-2)Man(a1-6)]Man(b1-4)GlcNAc(b1-4)[Fuc(a1-6)]GlcNAc
# Method in brief: as §1
# [17] = biological target: Gal(b1-4)GlcNAc(b1-3)Gal(b1-4)GlcNAc(b1-3)Gal(b1-4)GlcNAc(b1-3)Gal(b1-4)GlcNAc(b1-3)Gal(b1-4)GlcNAc(b1-2)[Gal(b1-4)GlcNAc(b1-3)Gal(b1-4)GlcNAc(b1-3)Gal(b1-4)GlcNAc(b1-3)Gal(b1-4)GlcNAc(b1-3)Gal(b1-4)GlcNAc(b1-6)]Man(a1-6)[Gal(b1-4)GlcNAc(b1-3)Gal(b1-4)GlcNAc(b1-3)Gal(b1-4)GlcNAc(b1-3)Gal(b1-4)GlcNAc(b1-3)Gal(b1-4)GlcNAc(b1-2)Man(a1-3)]Man(b1-4)GlcNAc(b1-4)[Fuc(a1-6)]GlcNAc
# Method in brief: as §1
# [18] = biological target: Gal(b1-4)GlcNAc(b1-3)Gal(b1-4)GlcNAc(b1-3)Gal(b1-4)GlcNAc(b1-3)Gal(b1-4)GlcNAc(b1-3)Gal(b1-4)GlcNAc(b1-3)Gal(b1-4)GlcNAc(b1-2)Man(a1-3)[Gal(b1-4)GlcNAc(b1-3)Gal(b1-4)GlcNAc(b1-3)Gal(b1-4)GlcNAc(b1-3)Gal(b1-4)GlcNAc(b1-3)Gal(b1-4)GlcNAc(b1-3)Gal(b1-4)GlcNAc(b1-2)Man(a1-6)]Man(b1-4)GlcNAc(b1-4)GlcNAc
# Method in brief: as §1
# [19] = biological target: Gal(b1-4)GlcNAc(b1-3)Gal(b1-4)GlcNAc(b1-3)GalNAc
# Method in brief: as §1
# [20] = biological target: Gal(b1-4)GlcNAc(b1-3)Gal(b1-4)GlcNAc(b1-3)[Gal(b1-4)GlcNAc(b1-3)Gal(b1-4)GlcNAc(b1-6)]GalNAc
# Method in brief: as §1
# [21] = biological target: Gal(b1-4)GlcNAc(b1-3)Gal(b1-4)GlcNAc(b1-6)[Gal(b1-3)]GalNAc
# Method in brief: as §1
# [22] = biological target: Gal(b1-4)GlcNAc(b1-3)Gal(b1-4)[Fuc(a1-3)]GlcNAc(b1-3)Gal(b1-4)[Fuc(a1-3)]GlcNAc
# Method in brief: as §1
binder,measurement,setting,value
HHA (Hippeastrum hybrid) (protein) MQQDCNLVLYDVDKPIWASNTGGLARDCHLNMQSDGNLVVYAPRNQVIWASNTQGENGNYVCILQKDRNVVIYGTARWATGTNIHGAGIVGVPGSAPQNTTAEMIKLVRKYLITK,glycan array binding signal (z-score),[1],-0.209
same,glycan array binding signal (z-score),[2],-0.211
same,glycan array binding signal (z-score),[3],-0.194
same,glycan array binding signal (z-score),[4],-0.125
same,glycan array binding signal (z-score),[5],-0.153
same,glycan array binding signal (z-score),[6],-0.124
same,glycan array binding signal (z-score),[7],-0.149
same,glycan array binding signal (z-score),[8],-0.213
same,glycan array binding signal (z-score),[9],-0.069
same,glycan array binding signal (z-score),[10],-0.167
same,glycan array binding signal (z-score),[11],-0.143
same,glycan array binding signal (z-score),[12],-0.174
same,glycan array binding signal (z-score),[13],-0.173
same,glycan array binding signal (z-score),[14],-0.174
same,glycan array binding signal (z-score),[15],-0.17
same,glycan array binding signal (z-score),[16],-0.174
same,glycan array binding signal (z-score),[17],0.019
same,glycan array binding signal (z-score),[18],-0.01
same,glycan array binding signal (z-score),[19],0.002
same,glycan array binding signal (z-score),[20],-0.128
same,glycan array binding signal (z-score),[21],-0.122
same,glycan array binding signal (z-score),[22],-0.194

# — the supplement of paper PMC8728848
